# Test results: the supplement of paper PMC8728848
# The other results are listed elsewhere or left out.
# Experiments:
# Assay in all cases: glycan array binding signal (z-score within array); higher = stronger binding
# Settings in all cases: glycan notation: IUPAC condensed, linker removed
# GalNAc3S(b1-4)GlcNAc3S = biological target: GalNAc3S(b1-4)GlcNAc3S
# Outline: (§1)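 The binding signal is a Z-score computed within each array. Data were drawn from 3228 arrays in the Consortium for Functional Glycomics database, restricted to those with a known protein sequence. Scores were averaged over arrays of the same protein sequence at different concentrations or buffers, and over linkers, and negative values can be taken as non-binding.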
# GalNAc4S6S(b1-4)GlcNAc = biological target: GalNAc4S6S(b1-4)GlcNAc
# Outline: as §1
# GalNAc6S(b1-4)GlcNAc = biological target: GalNAc6S(b1-4)GlcNAc
# Outline: as §1
# Glc(a1-4)Glc = biological target: Glc(a1-4)Glc
# Outline: as §1
# [1] = biological target: Glc(a1-4)Glc(a1-4)Glc(a1-4)Glc
# Outline: as §1
# Glc(a1-6)Glc(a1-6)Glc = biological target: Glc(a1-6)Glc(a1-6)Glc
# Outline: as §1
# [2] = biological target: Glc(a1-6)Glc(a1-6)Glc(a1-6)Glc
# Outline: as §1
# Glc(b1-4)Glc = biological target: Glc(b1-4)Glc
# Outline: as §1
# Glc(b1-6)Glc = biological target: Glc(b1-6)Glc
# Outline: as §1
# GlcA(b1-3)Gal = biological target: GlcA(b1-3)Gal
# Outline: as §1
# GlcA(b1-3)GlcNAc = biological target: GlcA(b1-3)GlcNAc
# Outline: as §1
# GlcA(b1-6)Gal = biological target: GlcA(b1-6)Gal
# Outline: as §1
# [3] = biological target: GlcNAc(a1-3)Gal(b1-4)GlcNAc
# Outline: as §1
# [4] = biological target: GlcNAc(a1-4)Gal(b1-3)GlcNAc
# Outline: as §1
# [5] = biological target: GlcNAc(a1-4)Gal(b1-4)GalNAc
# Outline: as §1
# [6] = biological target: GlcNAc(a1-4)Gal(b1-4)GlcNAc
# Outline: as §1
# [7] = biological target: GlcNAc(a1-4)Gal(b1-4)GlcNAc(b1-3)Gal(b1-4)Glc
# Outline: as §1
# [8] = biological target: GlcNAc(a1-4)Gal(b1-4)GlcNAc(b1-3)Gal(b1-4)GlcNAc
# Outline: as §1
# [9] = biological target: GlcNAc(a1-4)Gal(b1-4)GlcNAc(b1-3)Gal(b1-4)GlcNAc(b1-3)Gal(b1-4)GlcNAc
# Outline: as §1
# [10] = biological target: GlcNAc(a1-4)Gal(b1-4)GlcNAc(b1-3)Gal(b1-4)[Fuc(a1-3)]GlcNAc(b1-3)Gal(b1-4)[Fuc(a1-3)]GlcNAc
# Outline: as §1
# [11] = biological target: GlcNAc(a1-6)Gal(b1-4)GlcNAc
# Outline: as §1
# [12] = biological target: GlcNAc(b1-2)Gal(b1-3)GalNAc
# Outline: as §1
# [13] = biological target: GlcNAc(b1-2)Man(a1-3)[GlcNAc(b1-2)Man(a1-6)]Man(b1-4)GlcNAc(b1-4)GlcNAc
# Outline: as §1
# [14] = biological target: GlcNAc(b1-2)Man(a1-3)[GlcNAc(b1-2)Man(a1-6)]Man(b1-4)GlcNAc(b1-4)[Fuc(a1-6)]GlcNAc
# Outline: as §1
# [15] = biological target: GlcNAc(b1-2)Man(a1-3)[GlcNAc(b1-4)][GlcNAc(b1-2)Man(a1-6)]Man(b1-4)GlcNAc(b1-4)GlcNAc
# Outline: as §1
# [16] = biological target: GlcNAc(b1-2)[GlcNAc(b1-4)]Man(a1-3)[GlcNAc(b1-2)Man(a1-6)]Man(b1-4)GlcNAc(b1-4)GlcNAc
# Outline: as §1
# [17] = biological target: GlcNAc(b1-2)[GlcNAc(b1-4)]Man(a1-3)[GlcNAc(b1-4)][GlcNAc(b1-2)Man(a1-6)]Man(b1-4)GlcNAc(b1-4)GlcNAc
# Outline: as §1
# [18] = biological target: GlcNAc(b1-2)[GlcNAc(b1-4)]Man(a1-3)[GlcNAc(b1-4)][GlcNAc(b1-2)[GlcNAc(b1-6)]Man(a1-6)]Man(b1-4)GlcNAc(b1-4)GlcNAc
# Outline: as §1
# [19] = biological target: GlcNAc(b1-2)[GlcNAc(b1-4)]Man(a1-3)[GlcNAc(b1-4)][GlcNAc(b1-2)[GlcNAc(b1-6)]Man(a1-6)]Man(b1-4)GlcNAc(b1-4)[Fuc(a1-6)]GlcNAc
# Outline: as §1
# [20] = biological target: GlcNAc(b1-2)[GlcNAc(b1-6)]Man(a1-6)[GlcNAc(b1-2)Man(a1-3)]Man(b1-4)GlcNAc(b1-4)GlcNAc
# Outline: as §1
# [21] = biological target: GlcNAc(b1-2)[GlcNAc(b1-6)]Man(a1-6)[GlcNAc(b1-2)Man(a1-3)]Man(b1-4)GlcNAc(b1-4)[Fuc(a1-6)]GlcNAc
# Outline: as §1
# [22] = biological target: GlcNAc(b1-2)[GlcNAc(b1-6)]Man(a1-6)[GlcNAc(b1-2)Man(a1-3)][GlcNAc(b1-4)]Man(b1-4)GlcNAc(b1-4)GlcNAc
# Outline: as §1
# GlcNAc(b1-3)Gal = biological target: GlcNAc(b1-3)Gal
# Outline: as §1
# [23] = biological target: GlcNAc(b1-3)Gal(b1-3)GalNAc
# Outline: as §1
# GlcNAc(b1-3)Gal(b1-4)Glc = biological target: GlcNAc(b1-3)Gal(b1-4)Glc
# Outline: as §1
# [24] = biological target: GlcNAc(b1-3)Gal(b1-4)GlcNAc
# Outline: as §1
# [25] = biological target: GlcNAc(b1-3)Gal(b1-4)GlcNAc(b1-3)Gal(b1-4)GlcNAc
# Outline: as §1
# GlcNAc(b1-3)GalNAc = biological target: GlcNAc(b1-3)GalNAc
# Outline: as §1
# GlcNAc(b1-3)Man = biological target: GlcNAc(b1-3)Man
# Outline: as §1
# [26] = biological target: GlcNAc(b1-3)[GlcNAc(b1-4)][GlcNAc(b1-6)]GlcNAc
# Outline: as §1
# [27] = biological target: GlcNAc(b1-3)[GlcNAc(b1-6)]Gal(b1-4)GlcNAc
# Outline: as §1
# [28] = biological target: GlcNAc(b1-3)[GlcNAc(b1-6)]GalNAc
# Outline: as §1
# [29] = biological target: GlcNAc(b1-4)Gal(b1-4)GlcNAc
# Outline: as §1
# GlcNAc(b1-4)GlcNAc = biological target: GlcNAc(b1-4)GlcNAc
# Outline: as §1
# [30] = biological target: GlcNAc(b1-4)GlcNAc(b1-4)GlcNAc
# Outline: as §1
binder,measurement,setting,value
"Gal 8 (Homo sapiens), O00214_1 (protein) MMLSLNNLQNIIYNPVIPFVGTIPDQLDPGTLIVIRGHVPSDADRFQVDLQNGSSMKPRADVAFHFNPRFKRAGCIVCNTLINEKWGREEITYDTPFKREKSFEIVIMVLKDKFQVAVNGKHTLLYGHRIGPEKIDTLGIYGKVNIHSIGFSFSSDLQSTQASSLELTEISRENVPKSGTPQLRLPFAARLNTPMGPGRTVVVKGEVNANAKSFNVDLLAGKSKDIALHLNPRLNIKAFVRNSFLQESWGEEERNITSFPFSPGMYFEMIIYCDVREFKVAVNGVHSLEYKHRFKELSSIDTLEINGDIHLLEVRSW",glycan array binding signal (z-score),GalNAc3S(b1-4)GlcNAc3S,-0.241
same,glycan array binding signal (z-score),GalNAc4S6S(b1-4)GlcNAc,-0.248
same,glycan array binding signal (z-score),GalNAc6S(b1-4)GlcNAc,-0.215
same,glycan array binding signal (z-score),Glc(a1-4)Glc,-0.214
same,glycan array binding signal (z-score),[1],-0.217
same,glycan array binding signal (z-score),Glc(a1-6)Glc(a1-6)Glc,-0.22
same,glycan array binding signal (z-score),[2],-0.23
same,glycan array binding signal (z-score),Glc(b1-4)Glc,0.078
same,glycan array binding signal (z-score),Glc(b1-6)Glc,-0.234
same,glycan array binding signal (z-score),GlcA(b1-3)Gal,-0.219
same,glycan array binding signal (z-score),GlcA(b1-3)GlcNAc,-0.286
same,glycan array binding signal (z-score),GlcA(b1-6)Gal,-0.202
same,glycan array binding signal (z-score),[3],-0.107
same,glycan array binding signal (z-score),[4],-0.204
same,glycan array binding signal (z-score),[5],-0.169
same,glycan array binding signal (z-score),[6],-0.198
same,glycan array binding signal (z-score),[7],1.65
same,glycan array binding signal (z-score),[8],1.24
same,glycan array binding signal (z-score),[9],0.834
same,glycan array binding signal (z-score),[10],-0.013
same,glycan array binding signal (z-score),[11],-0.204
same,glycan array binding signal (z-score),[12],-0.197
same,glycan array binding signal (z-score),[13],-0.255
same,glycan array binding signal (z-score),[14],-0.146
same,glycan array binding signal (z-score),[15],-0.303
same,glycan array binding signal (z-score),[16],-0.261
same,glycan array binding signal (z-score),[17],-0.217
same,glycan array binding signal (z-score),[18],-0.271
same,glycan array binding signal (z-score),[19],-0.255
same,glycan array binding signal (z-score),[20],-0.25
same,glycan array binding signal (z-score),[21],-0.13
same,glycan array binding signal (z-score),[22],-0.279
same,glycan array binding signal (z-score),GlcNAc(b1-3)Gal,-0.222
same,glycan array binding signal (z-score),[23],-0.138
same,glycan array binding signal (z-score),GlcNAc(b1-3)Gal(b1-4)Glc,-0.156
same,glycan array binding signal (z-score),[24],-0.187
same,glycan array binding signal (z-score),[25],0.739
same,glycan array binding signal (z-score),GlcNAc(b1-3)GalNAc,-0.261
same,glycan array binding signal (z-score),GlcNAc(b1-3)Man,0.21
same,glycan array binding signal (z-score),[26],-0.227
same,glycan array binding signal (z-score),[27],-0.208
same,glycan array binding signal (z-score),[28],-0.228
same,glycan array binding signal (z-score),[29],-0.28
same,glycan array binding signal (z-score),GlcNAc(b1-4)GlcNAc,-0.187
same,glycan array binding signal (z-score),[30],-0.211
